Assay results published in paper PMC4336329 (PLoS ONE, 2015).
The campaign covered roughly 310,000 compounds. About 2,200 (0.71%) showed an effect of 50% or more. The effect is printed as a negative number. The list shows a part of the results.

The compounds below were run against human ether-à-go-go-related gene (hERG) potassium channel (human, UniProt Q12809) (assay: primary screen, population patch clamp on CHO cells stably expressing hERG).
human ether-à-go-go-related gene (hERG) potassium channel, sequence (Q12809 whole entry, looked up): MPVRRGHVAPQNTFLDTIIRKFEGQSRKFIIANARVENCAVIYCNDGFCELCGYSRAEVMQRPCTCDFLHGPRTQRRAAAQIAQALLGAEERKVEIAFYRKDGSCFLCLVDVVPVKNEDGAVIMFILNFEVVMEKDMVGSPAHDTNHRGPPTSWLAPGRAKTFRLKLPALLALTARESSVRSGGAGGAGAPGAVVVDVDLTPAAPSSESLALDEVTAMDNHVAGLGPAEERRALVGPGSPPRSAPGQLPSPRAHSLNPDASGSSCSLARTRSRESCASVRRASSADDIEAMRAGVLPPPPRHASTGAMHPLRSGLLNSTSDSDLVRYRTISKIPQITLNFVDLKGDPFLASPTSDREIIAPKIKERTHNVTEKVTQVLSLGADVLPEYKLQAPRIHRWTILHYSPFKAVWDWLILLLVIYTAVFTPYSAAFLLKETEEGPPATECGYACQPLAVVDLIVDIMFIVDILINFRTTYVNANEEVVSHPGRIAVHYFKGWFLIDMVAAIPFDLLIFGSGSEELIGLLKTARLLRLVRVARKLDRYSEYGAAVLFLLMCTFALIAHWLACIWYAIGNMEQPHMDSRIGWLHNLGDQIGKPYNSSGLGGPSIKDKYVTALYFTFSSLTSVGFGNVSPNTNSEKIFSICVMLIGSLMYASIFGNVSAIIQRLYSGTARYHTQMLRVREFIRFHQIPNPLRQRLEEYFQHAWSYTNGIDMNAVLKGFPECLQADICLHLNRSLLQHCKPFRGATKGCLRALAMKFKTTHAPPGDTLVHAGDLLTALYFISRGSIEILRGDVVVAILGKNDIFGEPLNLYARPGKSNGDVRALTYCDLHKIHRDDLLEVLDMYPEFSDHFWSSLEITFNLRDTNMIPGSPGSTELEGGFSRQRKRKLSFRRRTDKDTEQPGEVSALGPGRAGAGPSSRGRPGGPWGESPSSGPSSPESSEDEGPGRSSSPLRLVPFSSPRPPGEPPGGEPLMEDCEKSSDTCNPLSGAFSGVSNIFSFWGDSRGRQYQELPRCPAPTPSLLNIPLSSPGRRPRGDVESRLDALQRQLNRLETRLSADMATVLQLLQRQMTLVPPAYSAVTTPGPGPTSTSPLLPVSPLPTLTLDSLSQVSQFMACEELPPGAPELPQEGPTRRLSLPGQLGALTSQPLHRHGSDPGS

SMILES	hERG current change (%, negative = inhibition) at 1uM [%]
CC1CN(C(=O)c2cccc(S(=O)(=O)N3CCN(c4ccc(F)cc4)CC3)c2)CC(C)O1 (centres unmarked)	-0.796
O=C1CC2(CCCCC2)Oc2ccc(F)cc21	2.95
Cc1cccc(NC(=O)c2cccc3c2-c2ccccc2C3=O)n1	-6.98
CN(Cc1ccccc1)C(=O)c1ccccc1NC(=O)C1=CSCCO1	7.75
Cc1cc(C)c(C)c(S(=O)(=O)NNC(=O)c2cccc(S(=O)(=O)N3CCOCC3)c2)c1C	12
CC(C)(C)NC(=O)CN(Cc1cccs1)C(=O)CNS(=O)(=O)c1ccc(F)cc1	-3.38
Cn1cc(S(=O)(=O)NC2CCCCCC2)c(=O)n(C)c1=O	15.1
O=C(CCNS(=O)(=O)c1c(Cl)cccc1Cl)OCC(=O)c1ccccc1F	8.77
COc1cccc(NS(=O)(=O)c2ccc3[nH]cc(C(=O)NCCN4CCOCC4)c(=O)c3c2)c1	3.3
O=c1[nH]c(=O)c2nnc(N/N=C\c3ccc(O)cc3)nc2[nH]1	5.59
CN1CCCN(C(=O)c2cc3c(s2)CCCC3)CC1	2.27
CCc1nc(SCC(=O)Nc2cc(C)on2)c2c(C)c(C)sc2n1	2.55
C=CCNc1nc(Cl)nc(NC2CCCCC2)n1	15.2
CCCCOCCCNC(=O)Cc1ccccc1OC	13.8
Cn1c(=O)[nH]c(=O)c2c1nc(SCCN1CCCCC1)n2CCCc1ccccc1	-57.3
C[C@H](NC(=O)c1ccco1)C(=O)NCCc1ccc(S(N)(=O)=O)cc1	13.1
O=C(NCc1ccc(F)cc1)c1cc(S(=O)(=O)N2CCCCC2)ccc1Cl	4.33
Cn1c(=O)c2c(nc(N3CCCCC3)n2C)n(C)c1=O	-20.6
Cc1ccc(NC(=O)Nc2ccc3c(c2)OCO3)cc1F	-13.5
CN(C)S(=O)(=O)c1cccc(NC(=O)CNCc2ccccn2)c1.O=C(O)C(=O)O	9.61
Cc1cc(=O)n2nc(N3CCC(C(=O)NC4CCCc5ccccc54)CC3)sc2n1 (centres unmarked)	-8.07
CCN(CC)CCn1c2c(c(SCC(=O)Nc3nccs3)nc1=O)CCCC2	-22.6

SMILES	hERG current change (%, negative = inhibition) at 1uM [%]
Cl.OCCNCc1cccc2ccccc12	18.1
CC12CC3(C)CC(C)(C1)CC(C(=O)NCCc1ccc(S(N)(=O)=O)cc1)(C2)C3	1.76
CC1CN(C(=O)CCc2ccccc2)C(C)CN1C(=O)CCc1ccccc1 (centres unmarked)	-20.1
Cc1ccc(N2CC(C(=O)NCCS(=O)(=O)N3CCN(c4ccccc4F)CC3)CC2=O)cc1 (centres unmarked)	8.65
CC(NC(=O)C(=O)NCc1cccs1)c1ccccc1 (centres unmarked)	15.6
CN1C(=O)c2oc3ccccc3c(=O)c2C1c1ccccn1 (centres unmarked)	11.7
Cn1nc(C(=O)Nc2ccc3c(c2)OCCO3)cc1C(=O)O	14.4
CC(=O)c1ccc(NS(=O)(=O)c2c(C)cc(C)cc2C)cc1	11.7
COc1cc(C2C3=C(CCCC3=O)Nc3[nH]n(-c4ccccc4)c(=O)c32)ccc1O (centres unmarked)	-0.0963
CC1=C(C(=O)OC(C)(C)C)C(c2cccc3ccccc23)NC(=O)N1 (centres unmarked)	7.15
Cc1ccccc1N(CC(=O)NCC1CCCO1)C(=O)CNS(=O)(=O)c1ccc(F)cc1 (centres unmarked)	8.68
Cc1cccnc1NC(=O)CCC(=O)c1cccs1	9.21
Cc1ccccc1N(C)C(=O)c1coc(=O)c2ccccc12	13.3
COc1ccc(CCC(=O)N2CCCC(Nc3ccc(C)c(C)c3)C2)cc1OC (centres unmarked)	8.21
O=C(CNC(=O)c1ccccc1Br)N/N=C/c1cc(Br)ccc1O	18.4
COc1ccc(CNC(=O)CN2C(=O)NC(Cc3ccccc3)(c3ccccc3)C2=O)cc1OC (centres unmarked)	6.6
COc1ccc(C(=O)Nc2nnc(SCC(=O)NCc3ccco3)s2)c(OC)c1	8.14
CCCCN(C(=O)C1CCCO1)c1c(N)n(CC(C)C)c(=O)[nH]c1=O (centres unmarked)	3.99
COc1ccccc1CN1C[C@@H]2C[C@@H](c3[nH]c4ccc(C)cc4c3C)N3CCC[C@@]23C1=O	-1.1
COc1ccc(CN2C(=O)c3ccccc3C2OC)cc1 (centres unmarked)	9.37
Cc1nn(CCCC(=O)Nc2ccccn2)c(C)c1[N+](=O)[O-]	13.2
COc1ccc(Cl)cc1C(=O)Nc1ccc(N(C)C(C)=O)cc1	8.38

SMILES	hERG current change (%, negative = inhibition) at 1uM [%]
CNc1ccc(S(=O)(=O)NCC(=O)OCC(=O)Nc2cccc(Cl)c2Cl)cc1[N+](=O)[O-]	5.7
COc1ccc(C(=O)NCc2nnc(SCC(=O)N3CCc4ccccc43)n2CCc2ccccc2)cc1	7.17
COc1ccc(N(CC(=O)Nc2ccccc2C(=O)N2CCOCC2)S(=O)(=O)c2ccc(F)cc2)cc1	-4.22
Cc1cccn2c(CN3CCCN(C=O)CC3)c(C(=O)N(C)CCc3ccccc3)nc12	15.7
CCOCCCNC(=O)C(c1ccc(OC)cc1)N(Cc1ccc2c(c1)OCO2)C(=O)c1ccccn1 (centres unmarked)	9.53
CC(=O)Oc1ccc(C2OC(=O)c3ccccc3N2C(C)=O)cc1 (centres unmarked)	-3.42
O=C(Oc1ccc(O)cc1)C12CC3CC(CC(C3)C1)C2	8.7
O=C(CN(CCc1ccccc1)C(=O)CN1C(=O)COc2ccccc21)NCc1ccco1	-10.8
CCOc1cc(/C=N/NC(N)=O)ccc1OC(=O)c1ccc(C)cc1	8.88
COc1ccc(-c2cc(C(=O)Nc3cccc(Cl)c3)no2)cc1	20.5
Cc1c(S(=O)(=O)N2CCN(c3ccc(F)cc3)CC2)c(=O)n(C)c(=O)n1C	4.2
CC(C)(C)NC(=O)CN(C(=O)CCC(=O)Nc1nccs1)c1ccc(F)c(Cl)c1	0.866
Cc1cc(C(=O)NC2CCCCC2)c(C)o1	3.71
O=C(CCN1C(=O)C2CCCCC2C1=O)Nc1ccc(Br)cc1F (centres unmarked)	13.1
Cc1nn(CC(=O)NC(C)CCc2ccccc2)c(=O)c2nn(-c3ccccc3)c(C)c12 (centres unmarked)	20.7
O=C(c1ccccc1)[C@H]1[C@H](c2ccccc2)[C@@]2(N=C(c3ccccc3)OC2=O)C2c3ccccc3C=NN21 (some centres unmarked)	15.7
COc1cc(Cl)c(C)cc1NC(=O)CSc1nnc(CCC(=O)O)c(=O)[nH]1	13.2
CN=C1CC(SC)=C1c1ccc(C)cc1	9.36
Cc1cccc(C)c1Nc1ncnc2ccccc12.Cl	20
Brc1cc2c(cc1C1Nc3ccccc3C3C=CCC31)OCO2 (centres unmarked)	12.6
Cc1nc(SCC(=O)c2cccs2)c2oc3ccccc3c2n1	13.3
COc1ccc(CC(NC(C)=O)C(=O)NC2CCN(c3nnnn3-c3ccccc3)CC2)cc1OC (centres unmarked)	1.05

SMILES	hERG current change (%, negative = inhibition) at 1uM [%]
COc1cc(SSc2cc(OC)cc([N+](=O)[O-])c2N)c(N)c([N+](=O)[O-])c1	2.25
CCC(C)NC(=O)CSc1ccc(Cl)cc1 (centres unmarked)	16.8
Cc1ccc(S(=O)(=O)Cn2nnnc2CN2CCN(Cc3ccc4c(c3)OCO4)CC2)cc1	-8.32
Cn1c(CC(=O)Nc2ccccc2F)nnc1SCC(=O)NC1=NCCS1	23.4
CC(OC(=O)Cc1c[nH]c2ccccc12)C(=O)Nc1ccc(S(N)(=O)=O)cc1 (centres unmarked)	5.96
Cc1ccc(Nc2nc(Cl)c(C=O)s2)cc1Cl	11
CC(C)N(C(=O)c1ccccc1-c1ccccc1)C(C)C	4.93
CC(C(=O)Nc1ccc(C(=O)O)c(O)c1)N1C(=O)/C(=C\c2ccco2)SC1=S (centres unmarked)	15.2
Cc1cc(NC(=O)Cn2c(=O)n(Cc3ccccc3)c(=O)c3ccccc32)no1	10.1
O=C(Cn1nc(-c2cccc(Cl)c2)ccc1=O)NCC1COCCO1 (centres unmarked)	6.67
CCc1cccc(NS(=O)(=O)c2c(C)nc3scc(C)n3c2=O)c1	17.3
Cc1ccc(C(CCN(Cc2ccccc2)C(=O)c2ccco2)c2ccco2)cc1 (centres unmarked)	9.64
Cc1ccc(S(=O)(=O)N(C)c2ccccc2C(=O)N2CCOCC2)cc1	6.45
C=CCn1c(=S)[nH]c2sc3c(c2c1=O)CCCC3	12.8
CCc1cc(CNC(=O)c2ccc3nc(Cc4ccc(OC)c(OC)c4)oc3c2)on1	2.96
CCCc1cc(C(=O)O)c2ccccc2n1	-0.521
CCOc1ccc(C2c3c(oc4ccccc4c3=O)C(=O)N2CCCN2CCOCC2)cc1 (centres unmarked)	16
Cc1ccc(C(=O)NCc2ccc(Cl)c(Cl)c2)o1	9.21
COc1ccc(-c2ccc(SCC(=O)c3cccs3)nn2)cc1OC	11.8
CSc1ccc(CN2CCC(CO)(Cc3ccc(Cl)cc3)CC2)cc1	-29.5
